Experimental data as given in PubChem BioAssay AID686979 (National Center for Advancing Translational Sciences (NCATS), 2013).
Screen size: about 420,000 compounds; about 50,000 (12%) were called active. The inconclusive results got no clear call from the source; some entries with a clear call stand among them for comparison. Calls come from the whole dose curve; as a rule, active = well fitted inhibition curve with a large enough effect; inconclusive = small, poorly fitted or top-dose-only effect; inactive = flat fitted curve, though single readings scatter. No potency is given beside an inconclusive call; the fits are too rough.

Assay: qHTS for Inhibitors of human tyrosyl-DNA phosphodiesterase 1 (TDP1): qHTS in cells in presence of CPT; note: nearly all actives have a fitted effect of over 55% in size
Details: chicken DT40 Tdp1-/-;hTDP1 cells + 20 nM CPT, ATP luminescence, 48 h; activity change, negative = growth inhibition: at 46.2 µM (top of the series)
In short: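 Cell growth measured by CellTiter-Glo luminescence after a minimum 48 h, 37 C compound exposure with 20 nM CPT in Tdp1-knockout DT40 cells stably expressing hTDP1, seeded 400/well; qHTS titration format.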
% is set by controls: 0 for no effect and ±100 for the full control effect; potency is the fitted concentration of half-maximal effect; tags give direction and shape of the fitted curve.

| Structure (SMILES) | Potency | activity change, negative = growth inhibition |
| --- | --- | --- |
| CCCCNC(=O)c1onc(CSc2cccc(OC)c2)c1C(=O)NCCCC | inconclusive [inhibitor, single point] |  |
| c1ccc2c(N3CCOCC3)nc(N3CCOCC3)nc2c1 | inconclusive [inhibitor, partial curve] |  |
| CC(=O)Nc1ccc(NC(=O)CSc2ncc(C(=O)Nc3ccc(Cl)cc3)c(=O)n2C)cc1 | inconclusive [inhibitor, single point] |  |
| CN(CC(=O)NCCC1=CCCCC1)S(=O)(=O)c1ccc2c(c1)c(=O)n(C)c(=O)n2C | active: 8.2 µM |  |
| CC(C)NS(=O)(=O)c1ccc2c(c1)NCC2 |  | inactive: -0.472% |
| CC(Nc1nc(N2CCN(S(C)(=O)=O)CC2)nc2ccccc12)c1ccccc1 (stereo unspecified) | inconclusive [inhibitor, partial curve] |  |
| CCC(=O)N(CCC(c1ccccc1)c1ccco1)Cc1cccs1 (stereo unspecified) | active: 16.4 µM |  |
| CS(=O)(=O)N(CC(=O)Nc1ccccc1C(=O)N1CCOCC1)c1ccc2c(c1)OCO2 | inconclusive [inhibitor, single point] |  |
| Cc1c(C(=O)NCCC2=CCCCC2)sc2ncnc(N3CCCCC3C)c12 (stereo unspecified) | inconclusive [inhibitor, single point] |  |
| CCn1c(C(=O)NC(C)c2ccc3c(c2)OCCO3)cc2sccc21 (stereo unspecified) | inconclusive [inhibitor, partial curve] |  |
| CC(C)c1ccccc1NS(=O)(=O)c1cccs1 |  | inactive: -1.57% |
| CCOc1ccc(-c2nonc2NC(=O)c2oc3cc(C)ccc3c2C)cc1 | active: 23.1 µM |  |
| CC1CCN(CC(O)COCCC23CC4CC(CC(C4)C2)C3)CC1 (stereo unspecified) | active: 20.6 µM |  |
| N=C1C(c2ccccc2)=C(O)CN1c1ccccc1N1CCOCC1 |  | inactive: -13% |
| CCCCSCCCNC(=O)CN1C(=O)c2cccnc2Oc2ccc(Cl)cc21 | inconclusive [inhibitor, single point] |  |
| O=C(OCC(=O)N(Cc1ccccc1)Cc1ccccc1)c1cccc(O)c1 | inconclusive [inhibitor, single point] |  |
| Cc1cc(-c2nc3cccnc3s2)ccc1NS(=O)(=O)c1ccc2c(c1)OCCO2 |  | inactive: -21.2% |
| COc1ccc(Cc2nc3ccc(C(=O)NCC4COCCO4)cc3o2)cc1 (stereo unspecified) | inconclusive [inhibitor, partial curve] |  |
| CCC(C)n1c(C)nc2c(c1=O)c1nc3ccccc3nc1n2CCC1=CCCCC1 (stereo unspecified) |  | inactive: -1.22% |
| O=C(NN=Cc1cc(Br)c(O)c(Br)c1)c1ccccc1NS(=O)(=O)c1cccs1 |  | inactive: 5.3% |
| CC1CN(C(=O)COC(=O)c2ccc(N)c([N+](=O)[O-])c2)CC(C)O1 (stereo unspecified) |  | inactive: 1.71% |
